PubChem BioAssay (Tox21)
Values joined by “and” are separate entries in the source; they are usually repeats but may differ in a detail not shown here. Equal values may be shown once. This list was built around the results that the source calls inconclusive (neither active nor inactive); the mix of calls is not that of the screen. For some assays here: Where the call is inconclusive, the potency comes from a doubtful curve fit. A structure can be active in one record and inactive in another. Active and inactive are the calls of the source. Unless noted, the call rests on the fitted dose curve; in most records, active means well fitted curve in the direction sought with a large enough effect in the repeat runs; inconclusive means weak or mixed curves; inactive means no such curve, though single readings can be large; an effect the other way counts as inactive or inconclusive.

Key:
[1] = molecular target: Nuclear receptor subfamily 1 group I member 3 (Homo sapiens) (UniProt Q14994); assay: qHTS assay to identify small molecule antagonists of the constitutive androstane receptor (CAR) signaling pathway (AID 1224838);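 further: HepG2 cells stably expressing hCAR with CYP2B6 luciferase reporter stimulated by CITCO; nearly all actives have a fitted effect of over 40% in size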
Procedure, shortened: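 Human hepatoma HepG2 cells expressing hCAR and a CYP2B6 promoter (2.2 kb) luciferase construct; compound titration (15 points) with 50 nM CITCO final, 24 h at 37 C/5% CO2; luminescence via ONE-Glo after 30 min at room temperature.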

[2] = molecular target: Nuclear receptor subfamily 1 group I member 3 (Homo sapiens) (UniProt Q14994); assay: qHTS assay to identify small molecule agonists of the constitutive androstane receptor (CAR) signaling pathway (AID 1224839); further: nearly all actives have a fitted effect of over 15% in size
Procedure, shortened: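 A 15-concentration quantitative screen uses HepG2 cells co-transfected stably with human CAR and CYP2B6-2.2kb reporter. Treatment lasts 24 h with 0.75 uM PK11195 final present; ONE-Glo luminescence is the signal.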

[3] = qHTS assay to identify small molecule antagonists of the estrogen related receptor signaling pathway with the pleiotropic PPARgamma coactivator (PGC) from Tox21 10K library - cell viability counter screen (AID 1224840; active means well fitted cell-killing curve with a large enough effect in the repeat runs, not every such curve was filed as active; inconclusive means weak or mixed curves, or effect the other way; inactive means no such curve, though single readings can be large or run the other way; further: nearly all actives have a fitted effect of over 40% in size)
Procedure, shortened: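 Seeded PGC/ERR cells (2,000/well, 6 h, 37 C/5% CO2) get compound by pin tool; 17.5 h incubation at 37 C; CellTiter-Fluor added, 30 min, fluorescence measured.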

[4] = qHTS assay to identify small molecule antagonists of the estrogen related receptor signaling pathway with the pleiotropic PPARgamma coactivator (PGC) from Tox21 10K library (AID 1224841; call rule not given here; further: actives are mostly falling curves and most rising ones were filed inactive; nearly all actives have a fitted effect of over 50% in size)
Procedure, shortened: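 Test chemicals dissolved in DMSO were applied to pre-incubated (6 h) PGC/ERR cells at 2,000 cells/well for an 18 h, 37 C treatment; reporter luminescence was then read using One-Glo.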

[5] = molecular target: Thyrotropin receptor (Homo sapiens) (UniProt P16473); assay: qHTS assay to identify small molecule agonists of the thyroid stimulating hormone receptor (TSHR) signaling pathway (AID 1224843; calls by dose curve; further: nearly all actives have a fitted effect of over 45% in size; on activation: on the % scale 0 is the no-effect control and ±100 the full control effect); conditions: TSHR-HEK293 cells, cAMP HTRF, agonist mode, 30 min; activation: at 92.4 µM (top of the series) unless noted
Procedure, shortened: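 HEK293/TSHR, 800 cells/well; cpd 30 min RT; add cAMP-d2 + anti-cAMP-cryptate, 1 h RT; fluorescence read on plate reader. 15-pt titration, n=3.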

[6] = qHTS assay to identify small molecule agonists of the hypoxia (HIF-1) signaling pathway - cell viability counter screen (AID 1224844; calls by dose curve; further: nearly all actives have a fitted effect of over 50% in size)
Procedure, shortened: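 HRE-bla ME-180; 0.5% dFBS; cpd 17 h, 37C, 5% CO2; CellTiter-Glo lum., 30 min RT, post-FRET read, same wells.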

[7] = qHTS assay to identify small molecule agonists of H2AX (AID 1224845; active means well fitted activation curve with a large enough effect in the signal ratio in the repeat runs, not every such curve was filed as active; inconclusive means weak or mixed curves; the % refers to the signal ratio; on activation (H2AX phosphorylation): on the % scale 0 is the no-effect control and ±100 the full control effect); conditions: CHO-K1 phospho-H2AX Ser139 HTRF, 3 h; activation (H2AX phosphorylation): at 154 µM (top of the series)
Procedure, shortened: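 Wild-type CHO-K1 cells, plated overnight, exposed 3hr at 37C to 15 concentrations (0.76% DMSO final). Lysed, then HTRF anti-pH2AX (S139) cryptate and anti-H2AX-d2 antibodies, 24 hr room temperature; 665/620 nm emission read.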

[8] = qHTS assay to identify small molecule agonists of H2AX - cell viability counter screen (AID 1224847; calls by dose curve; further: nearly all actives have a fitted effect of over 30% in size)
Procedure, shortened: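 We seed wild-type CHO-K1 cells overnight, treat them for 3 hr at 37C with compounds in 15-concentration series, and quantify remaining viability by CellTiter-Glo luminescence.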

[9] = qHTS RealTime-Glo MT Cell Viability Assay in HEK293 cells - 32 hour (AID 1224868); further: nearly all actives have a fitted effect of over 50% in size
Procedure, shortened: (§1)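 HEK293 cells seeded with NanoLuc/prosubstrate reagent, rested 5 h at 37 C, then dosed and kept at 37 C up to 40 h. Nonlytic real-time luminescence from viable cells read at 0, 8, 16, 24, 32 and 40 h.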

[10] = qHTS RealTime-Glo MT Cell Viability Assay in HepG2 cells - 40 hour (AID 1224870); further: nearly all actives have a fitted effect of over 50% in size
Procedure, shortened: (§2)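 HepG2 cells (600/well) mixed with RealTime-Glo MT reagent, settled 5 h at 37 C/5% CO2 before compound addition. Nonlytic NanoLuc luminescence from viable-cell prosubstrate reduction read repeatedly during 40 h treatment at 37 C.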

[11] = A CellTox Green Cytotoxicity Assay to monitor cytotoxicity in HEK293 cells - 40 hour (AID 1224871); further: nearly all actives have a fitted effect of over 45% in size
Procedure, shortened: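 Tox21 screen in HEK293: membrane-impermeant cyanine dye fluoresces on binding dead-cell DNA; compound pinned 5 h post-seeding, plates held at 37 C, signal read repeatedly through 40 h.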

[12] = qHTS RealTime-Glo MT Cell Viability Assay in HEK293 cells - 40 hour (AID 1224874); conditions: RealTime-Glo luminescence; max response: stronger effect = lower value; further: nearly all actives have a fitted effect of over 50% in size
Procedure, shortened: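 HEK293 + NanoLuc + prosubstrate, 600 cells/well; 5 h, 37 C/5% CO2; compound 23 nL in DMSO by pintool; 37 C; luminescence read at 0, 8, 16, 24, 32 and 40 h time points.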

[13] = qHTS assay to identify small molecule agonists of the hypoxia (HIF-1) signaling pathway (AID 1224846; active means well fitted activation curve with a large enough effect in the signal ratio in the repeat runs, not every such curve was filed as active; inconclusive means weak or mixed curves; the % refers to the signal ratio); conditions: HRE-bla ME-180 cells, beta-lactamase ratio, 17 h; activation: at 76.8 µM (top of the series) unless noted
Procedure, shortened: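 Reporter induction in HRE-bla ME-180 cells is taken as agonism: cells sit 5 hrs after plating, receive compounds or DMSO only, incubate 17 hrs at 37C under 5% CO2, and are loaded with CCF4-AM for beta-lactamase FRET measurement.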

[14] = qHTS RealTime-Glo MT Cell Viability Assay in HEK293 cells - 16 hour (AID 1224872); further: nearly all actives have a fitted effect of over 50% in size
Procedure, shortened: as §1

[15] = qHTS RealTime-Glo MT Cell Viability Assay in HepG2 cells - 8 hour (AID 1224873); further: nearly all actives have a fitted effect of over 55% in size
Procedure, shortened: as §2

[16] = qHTS assay to identify small molecule agonists of the estrogen related receptor signaling pathway with the pleiotropic PPARgamma coactivator (PGC) from Tox21 10K library (AID 1224842); further: nearly all actives have a fitted effect of over 15% in size
Procedure, shortened: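 PGC/ERR reporter cell line, 2,000 cells per well, incubated 6 h at 37 C before 23 nL compound in DMSO was added. After 18 h at 37 C, One-Glo luminescence read following 30 min at room temperature.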
Potency means the concentration at half of the fitted maximal effect; tags describe the fitted curve by direction and shape or compound fluorescence and quenching.

UniProt Q14994, sequence (Q14994 whole entry, looked up): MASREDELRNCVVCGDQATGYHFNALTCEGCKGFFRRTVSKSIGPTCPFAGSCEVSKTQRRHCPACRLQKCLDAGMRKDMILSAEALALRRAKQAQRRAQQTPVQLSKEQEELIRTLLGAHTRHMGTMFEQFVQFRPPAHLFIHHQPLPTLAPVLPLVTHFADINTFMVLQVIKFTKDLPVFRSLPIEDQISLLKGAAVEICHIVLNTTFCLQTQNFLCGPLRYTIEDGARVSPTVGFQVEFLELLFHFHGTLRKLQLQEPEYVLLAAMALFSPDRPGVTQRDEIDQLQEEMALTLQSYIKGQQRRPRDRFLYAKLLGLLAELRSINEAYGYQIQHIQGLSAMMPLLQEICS
UniProt P16473, sequence (P16473 whole entry, looked up): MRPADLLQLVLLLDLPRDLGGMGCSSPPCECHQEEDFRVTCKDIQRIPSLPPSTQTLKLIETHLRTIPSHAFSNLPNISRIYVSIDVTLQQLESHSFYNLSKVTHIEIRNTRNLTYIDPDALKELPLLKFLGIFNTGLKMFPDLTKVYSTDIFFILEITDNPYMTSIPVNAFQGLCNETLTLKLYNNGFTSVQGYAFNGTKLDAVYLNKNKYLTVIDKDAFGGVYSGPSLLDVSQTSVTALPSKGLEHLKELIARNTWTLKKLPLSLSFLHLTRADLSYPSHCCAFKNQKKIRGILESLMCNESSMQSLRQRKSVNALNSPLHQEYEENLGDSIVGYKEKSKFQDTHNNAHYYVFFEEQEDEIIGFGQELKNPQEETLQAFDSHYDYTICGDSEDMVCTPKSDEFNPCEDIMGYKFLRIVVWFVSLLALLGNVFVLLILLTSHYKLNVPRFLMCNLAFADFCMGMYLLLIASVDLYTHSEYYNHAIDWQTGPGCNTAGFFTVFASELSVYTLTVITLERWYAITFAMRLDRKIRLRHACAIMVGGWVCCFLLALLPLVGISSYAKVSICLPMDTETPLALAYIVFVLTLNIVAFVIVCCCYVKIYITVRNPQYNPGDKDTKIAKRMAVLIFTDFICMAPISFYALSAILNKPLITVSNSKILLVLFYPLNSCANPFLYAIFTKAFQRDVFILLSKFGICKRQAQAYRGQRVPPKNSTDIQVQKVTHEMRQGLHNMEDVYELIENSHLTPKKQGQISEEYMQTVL

## CC(C)CC(C)(c1ccc(O)cc1)c1ccc(O)cc1
[1]
  Potency: active: 2.44 µM
[2]
  Potency: active: 6.87 µM and active: 2.17 µM
[3]
  Potency: inconclusive: 68.7 µM [cytotoxic] and inconclusive: 68.6 µM [cytotoxic]
[4]
  Potency: inconclusive: 61.1 µM [falling, single point]
[5]
  Potency: active: 48.7 µM
[6]
  Potency: inconclusive: 55.1 µM [cytotoxic, single point]
[7]
  activation (H2AX phosphorylation): inconclusive: 7.72%
[8]
  Potency: active: 101 µM and active: 89.8 µM
[9]
  Potency: inconclusive: 49 µM [cytotoxic, single point]
[10]
  Potency: inconclusive: 54.9 µM [falling, partial curve, poor fit]
[11]
  Potency: inconclusive: 21.9 µM [activator, partial curve]
[12]
  Potency: inconclusive: 43.6 µM [cytotoxic, partial curve]

## CCCN(CCC)c1c([N+](=O)[O-])cc(S(N)(=O)=O)cc1[N+](=O)[O-]
[1]
  Potency: inconclusive: 58.1 µM [inhibitor]
[5]
  Potency: active: 5.18 µM
[6]
  Potency: active: 37 µM
[7]
  Potency: active: 101 µM
[13]
  Potency: inconclusive: 52.2 µM [falling, partial curve]
[8]
  Potency: active: 89.8 µM
[14]
  Potency: active: 16.5 µM
[15]
  Potency: active: 24.5 µM

## O=P(OCC(Br)CBr)(OCC(Br)CBr)OCC(Br)CBr (stereo not drawn)
[1]
  Potency: inconclusive: 69.5 µM [inhibitor, single point]
[2]
  Potency: inconclusive: 51.7 µM [activator, partial curve]
[5]
  Potency: inconclusive: 12.4 µM [inhibitor, partial curve]
[8]
  Potency: inconclusive: 91 µM [cytotoxic, partial curve] and inconclusive: 107 µM [cytotoxic, partial curve]
[9]
  Potency: active: 27.9 µM and inconclusive: 41.4 µM [cytotoxic, partial curve]
[14]
  Potency: active: 22.2 µM and inconclusive: 52.2 µM [cytotoxic, single point]
[12]
  Potency: inconclusive: 46.5 µM [cytotoxic, partial curve]

## Nc1ccc([N+](=O)[O-])cc1
[1]
  Potency: inactive
[2]
  Potency: inconclusive: 54.5 µM [activator, partial curve]
[16]
  Potency: inconclusive: 48.6 µM [activator, partial curve, poor fit]
[5]
  Potency: inconclusive: 12.2 µM [activator, partial curve]
[6]
  Potency: inconclusive: 21.9 µM [cytotoxic, full curve]
[13]
  Potency: inconclusive: 27.5 µM [rising, partial curve, poor fit]
[8]
  Potency: active: 101 µM
[11]
  Potency: active: 38.9 µM

## Cc1ccc([N+](=O)[O-])[c]2c1[O][Hg]2
[1]
  Potency: active: 9.44 µM
[3]
  Potency: active: 5.96 µM
[5]
  activation: inconclusive: -37.9% [at 42.5 µM]
[7]
  Potency: active: 0.695 µM
[13]
  Potency: inconclusive: 0.674 µM [falling, full curve]
[8]
  Potency: inconclusive: 0.552 µM [cytotoxic, full curve, poor fit]
[14]
  Potency: active: 3.38 µM
[15]
  Potency: active: 2.13 µM

## O=[N+]([O-])c1c(Cl)c(Cl)c(Cl)c(Cl)c1Cl
[1]
  Potency: inconclusive: 68.2 µM [inhibitor, partial curve, poor fit]
[2]
  Potency: inconclusive: 30.5 µM [activator, partial curve] and inconclusive: 54.5 µM [activator]
[11]
  Potency: active: 21.8 µM and inactive

## CC(c1ccc(O)cc1)(c1ccc(O)cc1)c1ccc(O)cc1
[1]
  Potency: active: 9.69 µM
[3]
  Potency: inconclusive: 61.1 µM [cytotoxic, single point]
[4]
  Potency: active: 54.5 µM
[7]
  Potency: inconclusive: 113 µM [activator]
[8]
  Potency: inconclusive: 127 µM [cytotoxic, single point]
[14]
  Potency: inconclusive: 61.6 µM [cytotoxic, partial curve, poor fit]
[12]
  Potency: inconclusive: 54.9 µM [cytotoxic, single point]
